In general, EC50 refers to the midpoint of the concentration-response curve.

Consider one compound from PMC8166750 (The Journal of Biological Chemistry, 2021).

Changes are numbered by the printed parent chain.

The target in experiment [1] is T1, zfP2X4^WT (Danio rerio, UniProt F8W463).
T1 sequence (F8W463 1-389): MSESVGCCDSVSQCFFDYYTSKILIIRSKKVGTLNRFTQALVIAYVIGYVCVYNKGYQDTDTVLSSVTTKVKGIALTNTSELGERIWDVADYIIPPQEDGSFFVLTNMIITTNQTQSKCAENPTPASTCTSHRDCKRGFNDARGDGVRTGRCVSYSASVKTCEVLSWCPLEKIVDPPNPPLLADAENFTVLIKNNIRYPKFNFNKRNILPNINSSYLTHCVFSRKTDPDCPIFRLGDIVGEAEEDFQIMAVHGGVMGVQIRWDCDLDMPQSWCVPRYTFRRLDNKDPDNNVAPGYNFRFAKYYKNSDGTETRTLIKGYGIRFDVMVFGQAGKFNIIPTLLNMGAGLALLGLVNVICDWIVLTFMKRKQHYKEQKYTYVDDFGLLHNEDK
The experiment in a line: ATP concentration-response, perforated patch clamp in HEK293 cells. The class given is cell-based, zebrafish (Danio rerio).

Experiment [2] concerns the target T2, ckP2X7^WT (Gallus gallus, UniProt A0A8V1A1T0).
T2 sequence (A0A8V1A1T0 15-574): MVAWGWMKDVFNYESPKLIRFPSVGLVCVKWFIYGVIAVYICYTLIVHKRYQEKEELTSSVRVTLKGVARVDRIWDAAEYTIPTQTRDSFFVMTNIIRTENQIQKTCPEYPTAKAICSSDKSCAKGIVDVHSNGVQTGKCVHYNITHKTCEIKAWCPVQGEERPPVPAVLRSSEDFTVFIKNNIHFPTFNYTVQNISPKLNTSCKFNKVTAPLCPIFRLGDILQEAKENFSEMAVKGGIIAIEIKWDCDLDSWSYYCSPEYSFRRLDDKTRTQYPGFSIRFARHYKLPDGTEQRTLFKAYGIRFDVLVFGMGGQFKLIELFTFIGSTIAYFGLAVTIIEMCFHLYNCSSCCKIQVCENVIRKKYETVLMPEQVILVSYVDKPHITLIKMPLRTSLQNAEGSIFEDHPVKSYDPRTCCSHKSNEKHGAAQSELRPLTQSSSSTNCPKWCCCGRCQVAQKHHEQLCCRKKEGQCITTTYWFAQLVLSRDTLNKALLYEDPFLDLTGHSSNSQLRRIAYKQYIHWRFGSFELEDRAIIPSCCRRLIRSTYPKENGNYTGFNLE
Described as above. The class given is cell-based, chicken (Gallus gallus domesticus).

Experiment [3] concerns the target T3, AmP2X^WT (Amblyomma maculatum, UniProt G3MM57).
T3 sequence (G3MM57 1-383): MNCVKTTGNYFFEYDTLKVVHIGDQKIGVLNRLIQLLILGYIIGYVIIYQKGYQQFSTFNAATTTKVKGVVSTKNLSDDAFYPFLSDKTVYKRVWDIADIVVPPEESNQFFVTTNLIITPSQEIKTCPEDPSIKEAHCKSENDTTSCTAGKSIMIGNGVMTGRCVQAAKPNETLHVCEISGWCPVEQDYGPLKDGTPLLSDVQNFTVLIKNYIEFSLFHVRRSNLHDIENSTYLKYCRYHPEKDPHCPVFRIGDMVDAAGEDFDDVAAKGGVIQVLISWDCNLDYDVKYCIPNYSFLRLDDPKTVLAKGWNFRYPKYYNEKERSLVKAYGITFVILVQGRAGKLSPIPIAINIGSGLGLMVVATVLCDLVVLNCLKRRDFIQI
The experiment is described as above. Type of experiment: cell-based, gulf coast tick (Amblyomma maculatum).

Experiment [4] deals with T4, hP2X2^WT (Homo sapiens, UniProt Q9UBL9).
T4 sequence (Q9UBL9 1-471): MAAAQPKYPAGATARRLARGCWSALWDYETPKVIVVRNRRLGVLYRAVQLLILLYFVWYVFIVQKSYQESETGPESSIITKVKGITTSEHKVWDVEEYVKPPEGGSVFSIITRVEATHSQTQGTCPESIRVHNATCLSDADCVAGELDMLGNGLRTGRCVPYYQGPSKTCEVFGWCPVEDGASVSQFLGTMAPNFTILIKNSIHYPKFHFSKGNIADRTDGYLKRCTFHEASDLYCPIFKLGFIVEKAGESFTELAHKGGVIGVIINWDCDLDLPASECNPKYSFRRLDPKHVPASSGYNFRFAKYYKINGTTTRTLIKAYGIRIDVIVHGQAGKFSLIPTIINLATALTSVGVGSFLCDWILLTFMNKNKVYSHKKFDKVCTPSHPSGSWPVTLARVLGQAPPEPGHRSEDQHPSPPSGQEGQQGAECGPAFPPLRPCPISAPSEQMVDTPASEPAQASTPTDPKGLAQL
Described as above. Type of experiment: cell-based.

Experiment [5] concerns the target homomeric mammalian P2X5 (Homo sapiens, UniProt Q93086). The experiment in a line: ATP current in cells expressing homomeric receptor. The class given is cell-based.
Chain of UniProt Q93086 (Q93086 whole entry): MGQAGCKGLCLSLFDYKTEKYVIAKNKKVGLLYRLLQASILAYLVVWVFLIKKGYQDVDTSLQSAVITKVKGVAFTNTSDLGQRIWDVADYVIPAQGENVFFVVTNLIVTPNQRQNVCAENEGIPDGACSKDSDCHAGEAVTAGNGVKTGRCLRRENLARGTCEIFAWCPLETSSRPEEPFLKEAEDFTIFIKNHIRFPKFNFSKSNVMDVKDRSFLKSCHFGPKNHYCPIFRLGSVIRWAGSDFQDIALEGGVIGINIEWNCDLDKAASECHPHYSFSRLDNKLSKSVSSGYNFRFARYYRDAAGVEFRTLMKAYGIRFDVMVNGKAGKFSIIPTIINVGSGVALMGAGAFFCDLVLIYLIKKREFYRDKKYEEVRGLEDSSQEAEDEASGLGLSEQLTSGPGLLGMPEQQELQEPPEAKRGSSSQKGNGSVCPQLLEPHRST
For experiment [6], the target named is T5, hP2X1^WT (Homo sapiens, UniProt P51575).
T5 sequence (P51575 1-399): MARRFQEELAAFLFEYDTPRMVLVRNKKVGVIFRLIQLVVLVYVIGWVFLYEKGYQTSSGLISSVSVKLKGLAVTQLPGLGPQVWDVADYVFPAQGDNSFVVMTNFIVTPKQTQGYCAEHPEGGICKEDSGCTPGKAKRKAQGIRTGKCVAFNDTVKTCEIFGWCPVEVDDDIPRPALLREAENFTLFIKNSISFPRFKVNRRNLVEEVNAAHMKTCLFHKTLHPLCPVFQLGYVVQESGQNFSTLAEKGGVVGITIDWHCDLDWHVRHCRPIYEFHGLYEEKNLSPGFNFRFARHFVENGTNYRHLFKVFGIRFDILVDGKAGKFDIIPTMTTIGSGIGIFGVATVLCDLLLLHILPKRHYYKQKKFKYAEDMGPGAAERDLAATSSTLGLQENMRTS
In words: ATP concentration-response, perforated patch clamp in HEK293 cells. Type of experiment: cell-based.

Experiment [7] concerns the target T6, zfP2X4^E121A (Danio rerio, UniProt F8W463, E121A).
T6 sequence (F8W463 1-389 E121A): T1 sequence (F8W463 1-389) with E121A

The target in experiment [8] is homomeric mammalian P2X6 (Homo sapiens, UniProt O15547). The experiment in a line: ATP current in cells expressing homomeric receptor. The class given is cell-based.
Chain of UniProt O15547 (O15547 whole entry): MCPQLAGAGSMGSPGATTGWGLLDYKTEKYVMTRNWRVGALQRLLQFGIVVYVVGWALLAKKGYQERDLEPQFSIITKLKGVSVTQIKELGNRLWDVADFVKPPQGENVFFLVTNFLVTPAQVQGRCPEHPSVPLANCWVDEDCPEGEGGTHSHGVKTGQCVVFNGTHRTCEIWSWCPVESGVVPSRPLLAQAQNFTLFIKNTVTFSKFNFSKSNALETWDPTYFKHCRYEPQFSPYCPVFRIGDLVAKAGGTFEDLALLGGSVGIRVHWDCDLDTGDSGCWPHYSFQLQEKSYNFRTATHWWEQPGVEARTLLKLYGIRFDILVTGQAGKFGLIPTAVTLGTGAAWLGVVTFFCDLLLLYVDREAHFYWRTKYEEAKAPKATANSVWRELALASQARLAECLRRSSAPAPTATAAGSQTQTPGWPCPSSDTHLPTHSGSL

On to `Nc1ncnc2c1ncn2[C@@H]1O[C@H](COP(=O)(O)OP(=O)(O)OP(=O)(O)O)[C@@H](O)[C@H]1O` [ATP], for which the “nH (Hill coefficient) of ATP” value in experiment [1] is recorded as 0.94 ± 0.16; in experiment [2], 1.14 ± 0.16; in experiment [3] (AmP2X^WT), 1.14 ± 0.11; in experiment [4] (hP2X2^WT), 1.15 ± 0.17; in experiment [6] (hP2X1^WT) it was 1.04 ± 0.16; in experiment [7] it was 1.02 ± 0.18. Besides, the EC50 in experiment [1] (EC50 of ATP (concentration yielding half-maximal activation), mean ± SD, n = 3–7) came out at 1.43 ± 0.733 mM; in experiment [3], 43.5 ± 4.7 µM; in experiment [4] it was 13.2 ± 1.97 µM; in experiment [6], 860 ± 160 nM. For the same compound, the ATP current entry in experiment [5] and in experiment [8] was “negligible” throughout.
